Whole data set: some 33,000 sequences, median “E-score (-0.5 to 0.5)” near -0.053, cut for the highest 2% near 0.37. This is one part of the list.
molecular target: Hap1 (UniProt P0CE41); experiment: PBM E-score (8-mer binding enrichment) (E-score (-0.5 to 0.5)); higher = stronger / more preferred TF binding; most listed sequences are background and not binding sites; conditions: protein concentration: 200 nM; construct: GST-DNA-binding domain
In short: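 Using PURExpress in vitro transcription/translation, GST-tagged yeast transcription factors were made in full-length or DNA-binding-domain form. These were applied at about 100-200 nM to double-stranded universal all-10-mer Agilent arrays, and bound protein was detected with fluorescent anti-GST. Scans were normalised with masliner before the Universal PBM Analysis Suite assigned E-scores to ungapped eight-base words pooled with their reverse complements.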

Chain of UniProt P0CE41 (P0CE41 whole entry, the tested form may be a part): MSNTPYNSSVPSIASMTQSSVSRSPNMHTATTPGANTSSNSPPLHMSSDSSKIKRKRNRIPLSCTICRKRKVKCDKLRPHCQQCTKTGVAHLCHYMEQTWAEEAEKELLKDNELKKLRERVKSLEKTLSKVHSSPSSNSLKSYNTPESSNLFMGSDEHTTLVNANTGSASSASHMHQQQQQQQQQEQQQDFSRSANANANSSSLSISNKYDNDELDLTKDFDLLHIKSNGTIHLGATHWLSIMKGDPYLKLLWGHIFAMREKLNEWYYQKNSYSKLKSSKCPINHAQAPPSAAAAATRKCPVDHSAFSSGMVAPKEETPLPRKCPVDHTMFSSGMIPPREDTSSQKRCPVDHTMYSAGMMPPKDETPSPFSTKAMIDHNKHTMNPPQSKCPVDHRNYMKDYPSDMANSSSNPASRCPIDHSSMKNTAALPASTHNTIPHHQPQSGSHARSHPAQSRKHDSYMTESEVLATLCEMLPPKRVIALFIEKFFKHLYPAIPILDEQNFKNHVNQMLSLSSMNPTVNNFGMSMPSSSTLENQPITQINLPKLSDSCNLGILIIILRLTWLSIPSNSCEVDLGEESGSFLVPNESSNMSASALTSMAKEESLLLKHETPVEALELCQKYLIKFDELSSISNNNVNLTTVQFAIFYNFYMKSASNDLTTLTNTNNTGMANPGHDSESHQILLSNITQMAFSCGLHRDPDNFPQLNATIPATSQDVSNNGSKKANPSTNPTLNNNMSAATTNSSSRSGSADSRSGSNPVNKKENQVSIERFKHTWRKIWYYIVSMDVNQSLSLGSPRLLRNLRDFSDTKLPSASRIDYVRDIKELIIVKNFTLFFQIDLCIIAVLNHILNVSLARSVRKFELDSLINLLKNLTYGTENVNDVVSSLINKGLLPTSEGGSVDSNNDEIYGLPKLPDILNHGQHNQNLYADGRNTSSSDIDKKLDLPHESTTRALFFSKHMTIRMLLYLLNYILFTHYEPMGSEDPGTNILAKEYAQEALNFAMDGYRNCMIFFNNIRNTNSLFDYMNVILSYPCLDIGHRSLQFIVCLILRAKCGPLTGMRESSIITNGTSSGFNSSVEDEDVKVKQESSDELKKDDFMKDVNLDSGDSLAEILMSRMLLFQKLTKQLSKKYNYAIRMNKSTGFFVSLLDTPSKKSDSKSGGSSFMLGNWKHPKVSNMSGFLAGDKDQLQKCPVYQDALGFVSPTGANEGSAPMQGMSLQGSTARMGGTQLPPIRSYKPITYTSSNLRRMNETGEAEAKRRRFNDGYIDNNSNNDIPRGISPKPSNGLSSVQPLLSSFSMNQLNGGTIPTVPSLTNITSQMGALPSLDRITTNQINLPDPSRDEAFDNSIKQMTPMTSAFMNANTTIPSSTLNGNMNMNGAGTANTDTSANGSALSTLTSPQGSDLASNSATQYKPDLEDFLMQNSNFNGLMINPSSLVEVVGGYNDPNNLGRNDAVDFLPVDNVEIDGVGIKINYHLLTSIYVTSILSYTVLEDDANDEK

Sequence	PBM E-score
CTACGCAG	-0.145
CGTCTGGC	0.00143
ATCGCAGC	-0.0973
GCTGTAAA	-0.311
ATACACAA	-0.109
AAACGGGG	0.145
AGGCTCCG	0.318
CCGGCAGC	0.258
GAATTTAA	-0.0449
GTCGCCAA	-0.124
TCACAACA	-0.245
AAGAACTA	-0.00419
CATCTGTA	-0.224
AGTGGCTC	-0.193
AGGTACAG	-0.327
CACCAACA	-0.154
TCGAGTCA	-0.213
GATATTGA	0.111
TAGAAACA	-0.182
ATATGACA	-0.202
CTACCACA	-0.162
CATGGCGA	-0.063
ATGTTGGG	-0.00446
CCGCCTGC	-0.144
CCACTCAA	-0.266

Sequence	PBM E-score
GGGGGAGA	0.138
AGGACGGC	-0.176
AGCCGCGG	0.291
ATTCGACA	-0.197
GCTAGGCA	-0.0444
ACACCTTC	0.105
AGGAAGGA	-0.391
AACCCTTA	-0.158
TACAGCAA	-0.0896
AACTGAAC	-0.0611
CGGGTTCC	0.262
CCAGCTGA	-0.152
CATAAAAC	0.0538
ATCCCTGC	-0.0977
AATAATTC	0.147
ACCCAGAA	-0.202
AGGACTAC	-0.157
AAATTAGG	0.069
CAGGCACC	-0.237
ATTTAGGA	-0.132
AAGAGTCC	0.109
GCCTCTGA	-0.294
ATAATGAA	-0.169
CTCGTCAG	-0.172
CCGCTCTC	0.0913

Sequence	PBM E-score
ACATGCCA	-0.0718
CGCCTTGC	-0.032
TGACGTAA	-0.205
AGGATTTG	-0.207
CGTCTTAG	-0.205
ATAGCAGG	0.0555
AACTCAGG	-0.116
CGCTGTAG	-0.00435
CGGTCCCC	0.248
ACGCGGAG	0.286
GACCAGAC	-0.143
AGGAGATA	0.253
GGGCCGTA	0.187
TCTCTTCA	0.0192
AAAGCCTA	-0.199
CTCCCCAG	-0.199
ATGTGTTA	-0.198
TAGGTGAA	-0.00535
CTAGGGCA	-0.305
AGTCTCGC	-0.133
AACGGCAA	0.0886
GCGACCAA	-0.0589
CGCGTAAA	0.188
CATTCATA	0.0229
ACCCTAAG	-0.192

Sequence	PBM E-score
CCTGCACA	-0.248
ATGCATAA	-0.256
CCCGGTAC	0.296
CTTGGTGC	-0.218
ATGCATCC	0.0722
GAATCCTA	-0.0221
CTTCCGCA	0.128
CTGGAAAG	-0.166
ACATATCA	-0.053
CGAGTGGC	0.0984
CTATGGAA	-0.0331
ACCTTGGC	0.0492
CAAACATG	-0.284
CTTGGTTC	-0.101
CACAATAC	-0.127
ACGTCGTC	0.0183
AGCCAAAA	-0.131
AGTTCGTA	0.0523
TGCGTCCA	-0.0664
CCTCTCAC	-0.242
CACAGAAA	-0.238
CCCAAGTC	-0.143
GACTATGA	-0.143
CGGCATAA	0.254
CTCAGGGC	-0.134

Sequence	PBM E-score
CTGCCTCC	0.00063
TTAACCAA	-0.186
GAAACGCA	-0.0454
GTAGGAAC	-0.103
GAATACCA	-0.0351
AAAGGGGC	-0.162
TCCCTACA	-0.0494
AAGCCGGG	0.238
CGTTGTGA	-0.076
ACCCTCTA	-0.189
ACATGGAT	-0.145
AACTGCGT	-0.16
AAAATTAT	0.122
CATCTTTA	-0.165
ATAGTCCC	0.0684
ATCCGGAA	0.396
AACGACAC	-0.167
GATGAACA	-0.0212
CTTGTTTC	-0.0739
ATCTTCAT	-0.0312
CCTCGTGC	0.056
CCTCGGAA	0.314
CAAGCGAC	-0.0916
ACTCATAG	-0.233
GCTTAGCA	-0.0588

Sequence	PBM E-score
AACGATAG	0.118
ATACGTTA	-0.106
CTAGCCCC	0.0617
ATCAGAGC	-0.0942
GCACTAGA	-0.14
AGTCCAAT	-0.139
TCAACACA	-0.17
CTCAATAA	-0.139
GTAGTCCA	-0.135
CTCCTCAC	-0.186
GCGCGGCA	0.0895
TACCGTAA	0.0658
GCTATCGA	0.0431
AAAGGGTC	0.0161
AGGGCACG	-0.153
CCTGGGTC	-0.0881
AGTTGATG	-0.292
AAGTACAG	-0.329
ATCTGAAG	-0.198
AATCGTTC	-0.0339
AAATTGCT	-0.254
CGCAGCAA	-0.197
ACCCACAC	-0.0782
GGGCGCTA	-0.012
ATCCCAAG	-0.0728

Sequence	PBM E-score
CGTCCAAG	-0.111
ATCTTATC	0.0764
TGTCTAAA	-0.17
GGAGAGCA	-0.162
CATAGATG	-0.172
GAGGGCGC	0.0213
GACGCAGA	0.117
GAGTTAAA	0.0663
GGAAGGAC	-0.00898
GGGACTAC	0.0857
AATATGCC	0.0223
CTTGGTAC	-0.213
CTTTTCAC	-0.041
CTGATTAA	0.00066
CGAGCGGA	0.37
CAGTAATA	-0.163
CAATGCAC	-0.201
ACGGGCAG	-0.0462
CCACAGTA	-0.213
ATTTGTTA	-0.033
GAGATTAA	-0.0472
AGAGGCTC	-0.088
CATTAATG	-0.0191
AATATAGT	0.0483
ATATGAAA	-0.078

Sequence	PBM E-score
ATAATTGG	0.105
TATCAGAA	0.0826
TCCGACCA	0.286
CTGCAGTC	-0.176
ATAACCGG	0.363
AGACTATG	-0.119
ATGAGTTC	-0.0156
GTATTATA	0.094
AAAAAAAT	0.0105
TGGTAACA	-0.141
CTCAGAGC	-0.254
GAAAACGA	0.00989
AAATTACC	0.0508
AGAGTAGC	-0.227
GAGAAAAC	0.0285
TCGCGCAA	-0.103
ACAAGGCG	-0.0873
TTAAATAA	0.171
CAGGAATG	-0.213
CGTGGAGC	0.0223
ATCCGTAA	0.291
GAGCAGAA	0.00194
CGCGCCTA	0.132
TGAGTAAA	-0.176
GGATAGGA	0.0403

Sequence	PBM E-score
ACTTGGAT	-0.211
AACTCGGG	0.198
AGATGTCG	0.0897
ACCCGCGA	0.0755
CATGGTCG	-0.066
GGCAACCC	-0.128
AGGCGGCA	-0.172
CCTAAGAC	-0.154
CAACACTA	-0.0443
AACACATT	0.00416
AGTTGTCG	0.12
GAAATGGA	-0.116
ACTATGCT	-0.118
AGCATTCA	-0.17
AAAGGCCC	0.0104
GATGCATC	0.0209
ATCCATAA	0.138
AGTGATTC	-0.0523
ACGGTAAT	0.219
ACATCAGA	-0.236
AACCTGGC	-0.169
CGAGATGA	0.13
CCCCTGGC	0.00023
CAGTGAAG	-0.166
ATCTTGGG	-0.0696

Sequence	PBM E-score
GTAGAGTA	-0.102
GGTCACAA	0.00707
GACTAATC	0.231
GTCCCAAC	-0.11
ACTAATTC	0.129
CAAGGTGC	-0.0166
AACCATGT	-0.0592
GCAACACA	-0.101
ACCGAATG	0.239
AAACGCCG	0.402
AGTCTAAC	-0.0367
ACCTCTGA	0.0681
GAGAGGGC	-0.178
CAACGGGG	0.143
CCGTCAAG	0.0352
AACAATAA	0.0371
ATCACCAT	0.0457
CATTTAAC	-0.0471
CTCGCCAC	-0.0597
CCCAAGGA	-0.167
GTATCGAC	-0.0815
ATTCACCG	0.265
GTCCTACA	0.145
ACTTGATC	-0.11
GGACGTTA	0.214

Sequence	PBM E-score
AGCATAAG	-0.0611
AATCTGTA	-0.107
ATCACATC	-0.0189
AAACATCT	-0.105
GGTATCCA	0.052
GTTGGTCA	-0.025
AACTAGCA	-0.0223
ACATCCTG	-0.0661
AGTAATCG	0.0868
AGACTGCT	-0.211
AGATCTGC	-0.216
GCGTTCCC	0.15
ACCATCAC	-0.153
GCGAACTA	0.106
AGCATTGC	-0.00159
GGGTACAA	0.127
CGGCAAAG	0.234
ACGTTTCA	-0.112
CGACCGGC	0.232
AGACGTGC	-0.0222
GCGTAAGA	0.0174
AGCCTGTA	-0.131
AACGGAGG	0.228
AAAATCCA	0.054
GACTACCC	-0.0359

Sequence	PBM E-score
AATAGGCG	0.224
AACTCTGT	-0.111
CGCCTACC	-0.0452
GTTTGCTA	-0.0274
CCACTATC	0.202
GTAACATA	0.0732
CTTCCGCC	0.154
ATCATTGA	-0.139
ATGAGAGC	-0.11
GTATGACA	-0.0338
AGGCACGC	-0.0542
TTAACGAA	0.0696
GAACTTAA	0.0986
CATAGTAC	-0.098
GAACCCTC	0.0184
GGTTCCGA	0.279
CTTGTAGA	-0.21
CGAACTAG	0.162
CGTCTATC	0.0051
CAGTTTCA	-0.241
GTACCCAC	0.0414
CCCGGACG	0.388
ATCACCAA	-0.144
AGACCGCC	0.0771
CGCATTTA	0.312

Sequence	PBM E-score
CCCAGAGG	-0.125
ATCCCACC	0.211
AGGCGCAA	0.0886
TTCCGCAA	0.263
ATCCGAAG	0.326
ATATCCCG	0.286
AACTTCGA	-0.127
CTCAGATA	-0.0708
AGAACGTG	-0.0896
AATAACAT	-0.106
CTTATTGC	0.023
AAGTATGT	-0.281
CAGGCGCA	-0.262
AGCAGTGC	-0.272
TAGGCGGA	0.216
TTGCGCAA	-0.00107
CAACCTTG	-0.111
CGGTGGGC	0.0993
AATTTACT	-0.135
TAGGGTCA	-0.082
ACATCGAC	-0.145
AATTTGCC	-0.0245
CTTCGACC	0.148
ATACCAAT	0.0198
CAATGCCG	0.315

Sequence	PBM E-score
GATTAGCC	0.0595
TATTCTCA	-0.165
AAATACGG	0.0862
AGGCTCTC	-0.0785
CCCTAGTC	-0.331
CCACCGTA	-0.00821
GAAGGCTC	-0.0392
CTGACGCA	-0.221
CACATGAA	-0.194
ATAAGAAC	0.031
CTAAGAAC	0.155
TCTTCGAA	-0.201
AACTTATA	0.0458
ATCAGCGG	0.271
CAGCACGG	0.0657
ACGAGTAG	-0.0829
AACGGTGT	0.0274
GCAGTGAA	-0.206
CAGTACTC	-0.168
